# PubChem BioAssay AID624202 (National Center for Advancing Translational Sciences (NCATS), 2012)
# Among all 380,000 compounds or so, about 4,000 (1.1%) were called active. This list was built around the results that the source calls inconclusive (neither active nor inactive); the mix of calls is not that of the screen. Calls come from the whole dose curve; as a rule, active = well fitted activation curve with a large enough effect; inconclusive = small, poorly fitted or top-dose-only effect; inactive = no such curve, though single readings can be large or run the other way. A potency beside an inconclusive call is a rough fit, not a confirmed value.
# Test: qHTS Assay to Identify Small Molecule Activators of BRCA1 Expression; note: nearly all actives have a fitted effect of over 80% in size
# Details: MCF7-BRCA1-FFLuc reporter, luminescence, 48 h; activation: at 46.1 µM (top of the series), scaled: vehicle 0%, 10 µM genistein 100% unless noted
# Outline: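 48 h compound treatment of MCF7-BRCA1-FFLuc cells (phenol-red free MEM, 37 °C), then 15 min with luciferase substrate and luminescence imaging.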
# Potency is the fitted concentration of half-maximal effect; tags give direction and shape of the fitted curve.
SMILES,Potency,activation
Cc1cccc(NC(=O)c2cnc3ccccn3c2=O)c1,"inconclusive: 0.562 µM [activator, full curve, poor fit]",–
CC1CCCN(c2nc3ccsc3c(=O)s2)C1 (stereo not drawn),active: 12.6 µM,–
Cc1ccc(CSc2nnc(-c3ccccn3)n2C)cc1,"inconclusive: 11.2 µM [activator, partial curve, poor fit]",–
Cc1cc2cc(OCc3ccccc3)ccc2n1C,"inconclusive: 7.94 µM [activator, partial curve, poor fit]",–
CCCc1ccc(-c2cc(C(=O)NC3=NCCS3)c3ccccc3n2)cc1,"inconclusive: 1.58 µM [activator, partial curve, poor fit]",–
COc1cccc(C(=O)NC23CC4CC(CC(C4)C2)C3)c1,"inconclusive: 15.8 µM [activator, single point]",–
CC(C)(C)c1ccc(NC(=O)CN2C(=O)NC(C)(C3CC3)C2=O)cc1 (stereo not drawn),inactive,–
O=[N+]([O-])c1ccc(-c2cn3c(n2)SCC3)cc1,active: 8.91 µM,–
O=C(Nc1nc2c(s1)CN(Cc1ccccc1)CC2)C1CCC1,"inconclusive: 12.6 µM [activator, partial curve, poor fit]",–
CC(=O)Nc1ccc(NC(=O)C(NC(=O)c2ccc(Cl)cc2)C(C)C)cc1 (stereo not drawn),inactive,–
COc1ccc2cc(-c3ccon3)ccc2c1,active: 10 µM,–
Cc1cc(C)n(C(N)=NC(=O)c2ccccc2)n1,inactive,–
Cn1c(-c2ccc(Cl)cc2)cnc1N,–,"inactive: 6.61% [at 1.84 µM, scaled: vehicle 0%, 10 µM genistein 100%]"
COc1ccc(OC(=O)c2c(C)nn(-c3ccccc3)c2C)cc1,"inconclusive: 11.2 µM [activator, partial curve, poor fit]",–
COc1ccc2nc(Nc3ccccc3OC)sc2c1,"inconclusive: 0.501 µM [activator, full curve, poor fit]",–
CC(C)n1cnc(S(=O)(=O)N2CCCC(C(=O)NCc3ccccc3Cl)C2)c1 (stereo not drawn),inactive,–
O=C1C2C3C=CC(C4CC34)C2C(=O)N1/N=C/c1c[nH]c2ccccc12 (stereo not drawn),"inconclusive: 3.98 µM [activator, partial curve, poor fit]",–
Cc1ccc(C(=O)O/N=C(\N)c2ccccn2)c(C)c1,–,inconclusive: -89.3% [activator]
COc1ccc2nc(NC(=O)CSc3nnc(C)n3N)sc2c1,"inconclusive: 1.26 µM [activator, full curve, poor fit]",–
O=C(c1cncc(Br)c1)N1CCc2ccccc2C1,inactive,–
CCc1ccccc1N(C)S(=O)(=O)c1ccc(-c2cc(C)no2)s1,inactive,–
O=c1cc2[nH]c3ccccc3c(=O)n2nc1-c1ccccc1,"inconclusive: 11.2 µM [activator, partial curve, poor fit]",–
Cc1ccc(C)c(N2CCN(CCCNC(=O)c3ccc4nc(N5CCCCC5)sc4c3)CC2)c1,"inconclusive: 35.5 µM [activator, partial curve, poor fit]",–
Cc1ccc(/C=N/NC(=O)c2cccs2)cc1[N+](=O)[O-],active: 12.6 µM,–

SMILES,Potency,activation
C/C=C\C=C\C(=O)N1CC2(CC(c3cccc(NC(=O)CC)c3)=NO2)C[C@H]1C(N)=O (stereo partly drawn),inactive,–
CCCc1ccc(C(=O)O/N=C(\N)c2ccccn2)cc1,–,inconclusive: -86.4% [activator]
COc1cc(CN2CCCCCC2)cc(Br)c1O,inactive,–
COc1ccc2nc(NC(=O)c3ccc(Br)s3)sc2c1,"inconclusive: 1.78 µM [activator, partial curve, poor fit]",–
CC1CCC2(CC1)NC(=O)N(CC(=O)Nc1ccc3c(c1)OCCO3)C2=O (stereo not drawn),"inconclusive: 11.2 µM [activator, partial curve, poor fit]",–
Cc1cc(C(=O)N2CCC2(C)C(=O)NCc2cccc3ccccc23)nn1C (stereo not drawn),inactive,–
CCC(C)c1ccc(NC(=O)C2CC3CCC2C3)cc1 (stereo not drawn),active: 7.08 µM,–
Cc1ccc2nc(-c3ccc4c(c3)NC(=O)CO4)cn2c1,"inconclusive: 0.631 µM [activator, full curve, poor fit]",–
CC1CCCCC1NC(=S)NC(=O)c1cccs1 (stereo not drawn),inactive,–
O=C(/C=C/c1ccc(Br)o1)Nc1nccs1,inactive,–
O=C(NC1CC1)c1sc2ccccc2c1Cl,"inconclusive: 14.1 µM [activator, partial curve, poor fit]",–
Cc1noc(C)c1C(=O)Nc1nc2ccc(Cl)cc2s1,"inconclusive: 10 µM [activator, partial curve, poor fit]",–
O=C(O)CSc1nnc(CNc2ccc(Cl)cc2)n1Cc1ccccc1,inactive,–
O=C(CC1SCCNC1=O)Nc1cccc(Cl)c1 (stereo not drawn),"inconclusive: 15.8 µM [activator, partial curve, poor fit]",–
O=C(COC(=O)c1ccc(O)cc1O)c1ccc(Cl)cc1,"inconclusive: 12.6 µM [activator, partial curve, poor fit]",–
CC(C)C(=O)Nc1ccc(NC(=O)c2cccs2)cn1,"inconclusive: 15.8 µM [activator, single point]",–
CCCOc1ccc(-c2nc(N3CCN(C)CC3)c3ccccc3n2)cc1,"inconclusive: 10 µM [activator, partial curve, poor fit]",–
O=C(CS(=O)(=O)c1ccccc1)Nc1nnc(Cc2ccccc2)s1,inactive,–
Cc1c(Nc2ncccc2C(=O)O)cccc1C(F)(F)F,inactive,–
c1ccc(CSc2ccc(-c3cccnc3)nn2)nc1,"inconclusive: 15.8 µM [activator, partial curve, poor fit]",–
Cn1cc(C(=O)N2CCc3ccccc32)cn1,"inconclusive: 14.1 µM [activator, partial curve, poor fit]",–
COc1ccc(-n2cc(CN3CCCC3)c(-c3cccc(F)c3)n2)cc1,inactive,–
COc1ccc2cc(C(=O)N3CCc4ccccc43)[nH]c2c1,"inconclusive: 2.24 µM [activator, full curve, poor fit]",–
Cc1ccc(NC(=O)c2ccc(OCC3CCCO3)cc2)nc1 (stereo not drawn),"inconclusive: 1.26 µM [activator, full curve, poor fit]",–
